± gives the standard deviation of the averaged measurements. The list shows a part of the results.
System: PfAP2-EXP AP2 domain (GST-tagged)
Experiment: gcPBM binding intensity (ln(normalized median fluorescence intensity)); higher = stronger DNA binding
How it was run: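 Probes on an Agilent 4 × 180k array were primer-extended, double-stranded and 36 bp long, taken from intergenic genomic regions, with negative controls added. GST-tagged P. falciparum DNA-binding domains from E. coli, about 25 μg on average, were applied to the array for 1 h in 1× PBS containing 1% milk, 0.2 mg/ml BSA, 0.5% salmon testes DNA and 0.03% Triton X-100. Binding intensity, obtained after Alexa488 anti-GST antibody detection and a 488 nm scan, is the highest Masliner-normalised natural-log median intensity across replicate spots of either probe orientation.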

Sequence | gcPBM binding intensity (ln)
ATAAATAAAAATACATGAACAGGTCAGGTTATTTTT [CACACA_negctrl_site1007] | 8.12 ± 0.36
TTATATATAGAATAAACATGCATTTGTATATGAATA [TGCATGCA_site604] | 8.69 ± 0.46
ACATATATATATTTATATATATATATATATATGTGA [CACACA_negctrl_site613] | 8.32 ± 0.057
TCACATACATTACTTACACACCATATTAATATATAC [CACACA_site8047] | 8.93 ± 0.38
AATAAAAAATAAAAAATAAACAGTATACATATATAT [GTGCAC_negctrl_site31] | 8.7 ± 0.42
TGTATATAAACAAGGGGTACAATAATATAAATAAAT [XGTACX_site8675] | 8.85 ± 0.44
TCATATTAATTTGATAGTACATATACTTTGAAGTCC [XGTACX_site3767] | 8.43 ± 0.36
ATATAATATTACAAATGTACTTTAAAAAATTAGGAG [XGTACX_site3897] | 8.65 ± 0.42
TTGTTTCAAGAAAAAATCGAAAAACATAGAAAAAAA [XGTACX_negctrl_site615] | 8.53 ± 0.47
ACATATAAAATATATACACACATATAAATACATTAA [CACACA_site3867] | 8.38 ± 0.41
TATATATCAAAAATATGTACACAGAAATATATATTA [XGTACX_site6997] | 8.72 ± 0.4
TTGCAATAATGTTGCACACTAAATAGTCATATATAA [CACACA_site263] | 8.41 ± 0.17
ATTCTATATATATAAACACACAAATATTTTTATATA [CACACA_site1677] | 8.39 ± 0.35
TTTTAGTGAAATGAGTGTACATTATATATTTTTTTT [XGTACX_site4892] | 8.38 ± 0.3
ATATAAGGAAGGGATGCACACAAAAGGGTACATAAG [CACACA_site9328] | 8.84 ± 0.31
AAGACTAATCTAGGTAGTACTTATATATCTTTATTT [XGTACX_site4572] | 8.37 ± 0.24
TTTGGGATATTTACAGTGCAAAGATATTTTTATAAT | 8.625 ± 0.078
ATAACATAATAGCAACAATTTATTTCCTCTATAACA [CACACA_negctrl_site243] | 8.32 ± 0.33
TTTTTTATATATGTGTGTGTGTGTGTGTCAAGTTTA [GTGCAC_negctrl_site460] | 8.6 ± 0.59
ATATTTTTGTTCAGGAGTACAGTTCAAGATGAAAAT [XGTACX_site4178] | 8.67 ± 0.34
TATAAATAATGTTAAACACACATACCGATATATAAT [CACACA_site5499] | 8.69 ± 0.52
AAATTATTATGTATTTGTACACATAAGAATATAAAA [XGTACX_site6841] | 8.44 ± 0.4

Sequence | gcPBM binding intensity (ln)
AATGGGGAAGGTTCTACACACAACGCAAATGCCTTA [CACACA_site2758] | 8.55 ± 0.51
TCAGTTAATGTATATGTACACACGGTGAGTATATAT [CACACA_site3346] | 8.54 ± 0.2
AGAGAAAGAAAGAAATGTACAAATACCTACACACAT [XGTACX_site3140] | 8.73 ± 0.64
TATTTTTTTCATAACAGTACAATAATATATATTTTT [XGTACX_site5739] | 8.55 ± 0.42
GCACACACAAAAAAAGCATGCATACTAGCTATTTTT [TGCATGCA_site18] | 8.67 ± 0.4
CTATAAATGAATGTTTGTACTTAATAATAAAAGAAA [XGTACX_site3170] | 8.49 ± 0.43
TTTTTTACAAATGATATCATTTCTTTAAATATTAAA [TGCATGCA_negctrl_site279] | 8.46 ± 0.4
AAAAAACACCCATACACACACACACCGATATATATA [CACACA_site5808] | 8.69 ± 0.4
TATTCGTGCAATAATAGTACACTTATAAATTATTCA [XGTACX_site8993] | 8.595 ± 0.064
AATGAAATAAATAAGGGTACACATAAATATATATAT [XGTACX_site7006] | 9.52 ± 0.12
AATCAAAAAAAATGTTGTACGCCTAATTATAATTAA [XGTACX_site8906] | 8.57 ± 0.31
TTATAAATTTAAAGTAGTACTATACTACTATTTTAT [XGTACX_site3038] | 8.06 ± 0.29
TTTATAAGAATTACTAGTACATATAAGGAATTATAT [XGTACX_site3953] | 8.29 ± 0.33
CATTTTTTATAATAATGTACATGTATTAAAAAAAAA [XGTACX_site6390] | 8.43 ± 0.29
ATCCACAAAATAGGATGTACATATAAAATAAATAAA [XGTACX_site5362] | 8.63 ± 0.5
TATGGAATAATACGCGTACACACATATATATATTAA [CACACA_site132] | 8.93 ± 0.4
TTTACATACAAATTAACACACATATAGAAAAGAGAA [CACACA_site1889] | 8.97 ± 0.52
CTCGTATATATAATACGTACATATTATATATATATA [XGTACX_site1704] | 9.71 ± 0.49
CCTTCATCATATTTAACACACAGAGAAAAAGCGGAT [CACACA_site274] | 8.88 ± 0.64
AAAAAAAAAAAAAAAAAAACCACAAACAAATATGAA [TGCATGCA_negctrl_site34] | 8.845 ± 0.035
TCCTTTCTTTTTTAAACATGCATATGTAATATAAAT [TGCATGCA_site979] | 8.77 ± 0.042
TTTTAAAATATATTTGTATATATATATATATATATA [XGTACX_negctrl_site536] | 10.4 ± 0.35

Sequence | gcPBM binding intensity (ln)
ATAATATAATAATACACACTCATTATATATATAAAG [CACACA_site3956] | 8.37 ± 0.47
AAAAAAAATAAACACACACACATACCCATAAATATA [CACACA_site5980] | 8.72 ± 0.53
TTTGAAATATTTATTTGTACATATACACACTTAAAT [XGTACX_site8321] | 8.52 ± 0.38
ATATTATTTTGTCAGGGTACATTCCATAAGTTTTTT [XGTACX_site6855] | 8.8 ± 0.42
TATTTATGTAGATACACACCCATGTTATATGGAGGT [CACACA_site3461] | 8.42 ± 0.31
TTTCTTTTTTTTTTTATTTACCTGAATTATGTATTA [TGCATGCA_negctrl_site345] | 8.56 ± 0.7
GCTTGTTCAAAAATGAGTACATACAAATAGTTGTAT [XGTACX_site1770] | 8.645 ± 0.007
AATAGATTTTTATGCGTGCACACATTTAACAAAAAA | 8.88 ± 0.11
GTGCTAGTATTTAATACACACAATTGAAGTTCCTGA [CACACA_site1452] | 8.39 ± 0.36
TTCTGTTCAAAATATGAACACACACCGATATATATA [CACACA_site8637] | 8.49 ± 0.38
TACACCAGTTGTGGGAGTACACAAAAAAAGGGAAAA [XGTACX_site6047] | 8.39 ± 0.31
AAAAATATAAAGAAATGTACTTATAAAAATCCCTAC [XGTACX_site3824] | 8.46 ± 0.31
TGCAGTCTGGAGAAAAGTACACAGTATCTGGTAGCT [XGTACX_site2013] | 8.59 ± 0.19
AATATCATAAAATAAAGTACAAATATATATTGAAAA [XGTACX_site8813] | 8.71 ± 0.45
CTTTATCTTTTTCATTGTACTTTATTTTAAAATTAA [XGTACX_site4858] | 8.94 ± 0.34
TTCTGGTGTAAATGCACACAGAAGAAGAAAAAAAAA [CACACA_site3685] | 8.68 ± 0.33
TAATTTAATTTTCCAAGAAAAAAAAAAGAAAAAAGA [CACACA_negctrl_site1703] | 8.27 ± 0.37
TAACATCCTAATGTCACACATGTTATAGGTTTAAAT [CACACA_site5649] | 8.21 ± 0.26
ATGATCATAAAACACACACACAAAAAAAAAAAAAAA [CACACA_site1805] | 8.12 ± 0.64
ATTAATTTTATATATGCACACAAAATATGTTCATAT [CACACA_site9350] | 8.28 ± 0.15
AATAATATTTATTTTTGTACATATGTGCATTATAAA [XGTACX_site3682] | 8.63 ± 0.12
TATGTATATATTTGTGCACACCAAAGTTTGATTTTA [CACACA_site1861] | 9.2 ± 0.13

Sequence | gcPBM binding intensity (ln)
TTATAATAAACCTATACACACATAAATAAATAAATA [CACACA_site2581] | 8.61 ± 0.45
TCAAGAATTATATAAACACACATACATACACCCATA [CACACA_site5126] | 8.85 ± 0.55
ATATTGATGTATTGTTTTTTTTTTTTCTTTTTTTTT [CACACA_negctrl_site1238] | 8.32 ± 0.64
GAATTCAACAAAAAAAGTACTCTACATAAAATAATG [XGTACX_site175] | 8.46 ± 0.39
CCATGCATACATTCTTGTACACATTTCTATTATGAG [XGTACX_site39] | 8.89 ± 0.41
TACTCACAATGGGGTCTACAAAAAAAAAAAAATAAA [XGTACX_negctrl_site229] | 8.31 ± 0.5
GAACGAAACTTTCTTACACACATTGAAATTTTTTTC [CACACA_site1779] | 8.86 ± 0.51
TTATAAAAGGACTTCTGTACGAATTTTTTTTAATAA [XGTACX_site1411] | 8.03 ± 0.11
TATGCAAGGAACCACACACACACACCGAAATGTATA [CACACA_site4573] | 8.57 ± 0.6
AATAAATAAATATATATATATATATAATATCATAAA [CACACA_negctrl_site337] | 8.6 ± 0.057
TTTTTTATTAGTATCTGTACACATTGGTATTTGTAT [XGTACX_site6682] | 8.82 ± 0.33
TTCTTTAAAATATTATGTACACATTGCGAACAGTTT [XGTACX_site5418] | 8.97 ± 0.3
TATATATATATATATTGTACTTATGTTTATATTCAT [XGTACX_site6258] | 10.1 ± 0.2
ATATATATTTATGTATCACACACAAAAAAAAAAAAT [CACACA_site7973] | 8.4 ± 0.54
AGTTTATTTATATACACACACATATAAATATTATAG [CACACA_site6522] | 8.55 ± 0.59
ATATAGACACACACATGTACATATGCCAACGTGATA [XGTACX_site3828] | 8.62 ± 0.41
ATAAACTGAGTGGTTACACACAAAACCAATAACTTT [CACACA_site7601] | 8.54 ± 0.46
ACTATATAATATAATATATTATAATATATTATATTA [GTGCAC_negctrl_site140] | 8.21 ± 0.32
TTCTTAAAATATGAAAGTACATAGGCATTATATATT [XGTACX_site8400] | 8.4 ± 0.32
TTATAATATTCATAAGGTACAGTTTATATATGTTAT [XGTACX_site8442] | 8.47 ± 0.4
TTGAGTTGTATAAAAAGTACAAGGTTTTAACTAAAT [XGTACX_site1447] | 8.55 ± 0.37
AATAATCATGATCAAAGTACGTATGATTAAAAAAAA [XGTACX_site4916] | 8.62 ± 0.48

Reference: the supplement of paper PMC11417369
